Drawing on the supplement of paper PMC10126150, this text covers switch fluorescence ratio for 67 sequences.

Sequences with one replicate were seen in a single cluster, so their values are uncertain.
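Also: ATP exposure 15 min at 22 °C before imaging.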

This data set relates to ATP. Description: switch fluorescence ratio, 500 uM ATP over buffer (Cy3 cluster intensity, sum of 5 cycles each) (fold (ratio)); higher = stronger signal-on switching upon ATP binding; sequences stand for … in TCGTCGGCAGCGTCAGATGTGTATAAGAGACAGTTTTTTTTTTTTTTTTTTTTTTTTT…TC. The note with it: aptamer strand: ATP DNA aptamer (quencher-CACCTGGGGGAGTATTGCGGAGGAAGG + anchor), 100 nM annealed; ATP concentration: 500 uM; one replicate. In short, it runs like this: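 Cy3-labelled switching-strand clusters on a modified Illumina MiSeq flow-cell were annealed to 100 nM quencher-labelled ATP aptamer, imaged in selection buffer, then imaged after 15 min with 500 uM ATP at 22 °C. Five buffer/ATP cycles ran, with NaOH stripping and re-annealing between them. The fluorescence ratio is summed target-cycle over summed buffer-cycle Cy3 intensity per cluster, averaged per switch-domain sequence. Clusters outside 100-1000 RFU were excluded.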
For CTGCTCGCTG, the switch fluorescence ratio stood at 1.15.

ATTTCCAGGC: the switch fluorescence ratio is 1.35.

As for CTGTAGGTGA, the switch fluorescence ratio stood at 1.1.

Consider TCGGTGTACA, for which the switch fluorescence ratio came to 0.962.

Take GGAACAAGGG: the switch fluorescence ratio was 0.997.

Take CGGGATTCGC: the switch fluorescence ratio came to 1.04.

Turning to TGACGTGCA, the switch fluorescence ratio is 1.02.

For AGTATCATCG, the switch fluorescence ratio worked out at 1.01.

In the case of TTCTACTGCG, the switch fluorescence ratio was found to be 1.

Consider TGCCTGATCA, for which the switch fluorescence ratio was found to be 0.965.

As to CGTTGATTCA, the switch fluorescence ratio was 0.977.

On to TACGGGTATT, for which the switch fluorescence ratio was 1.04.

As to TTACTATCCT, the switch fluorescence ratio turned out to be 1.07.

Regarding TCGGGTGGAG, the switch fluorescence ratio worked out at 0.931.

Regarding ACGTGACACA, the switch fluorescence ratio worked out at 1.22.

Regarding ATCGAGTTGT, the switch fluorescence ratio was 1.02.

CGCTAAAGAG: the switch fluorescence ratio turned out to be 1.05.

For GTTTGTGAAG, the switch fluorescence ratio was 1.03.

Regarding TCTGTGGCAT, the switch fluorescence ratio was 1.11.

Consider TCCCGTAAAA, for which the switch fluorescence ratio came out at 1.29.

GTATTAAATA: the switch fluorescence ratio was 0.948.

CGGTCCTGTT: the switch fluorescence ratio came out at 1.

Turning to TCTGTCTTGT, the switch fluorescence ratio came to 1.

For GAGAACAGCT, the switch fluorescence ratio amounted to 1.01.

As for ACAAGTGTAT, the switch fluorescence ratio worked out at 1.02.

Consider TTAAGTACT, for which the switch fluorescence ratio came out at 1.19.

In the case of ATTATATCG, the switch fluorescence ratio is 1.

For the sequence CGATGACCCT, the switch fluorescence ratio turned out to be 1.05.

Turning to CGTGCCTTGT, the switch fluorescence ratio is 0.994.

In the case of TTAATTCTG, the switch fluorescence ratio was 1.01.

For the sequence AACAGCATGT, the switch fluorescence ratio amounted to 1.04.

For TAAGGCTCTA, the switch fluorescence ratio was found to be 0.978.

Take TTCGACATAG: the switch fluorescence ratio was 0.986.

On to GATGATCCTC, for which the switch fluorescence ratio worked out at 0.997.

As to ATCGATGGCA, the switch fluorescence ratio came to 1.04.

Consider AGGAATAATA, for which the switch fluorescence ratio is 1.01.

For the sequence GGAAAGTTTT, the switch fluorescence ratio worked out at 0.972.

For GTTAATTCGG, the switch fluorescence ratio came out at 0.995.

As to TTAAACTACT, the switch fluorescence ratio stood at 1.1.

In the case of CTTCCTATGA, the switch fluorescence ratio stood at 1.19.

Turning to GCTAGCTCCT, the switch fluorescence ratio came out at 1.05.

Take TATTTATATA: the switch fluorescence ratio amounted to 1.04.

With GAACGTCACT, the switch fluorescence ratio turned out to be 1.81.

For the sequence GAATATGTGT, the switch fluorescence ratio stood at 0.94.

Turning to TTTCTGATTG, the switch fluorescence ratio turned out to be 1.04.

As to TGCCAAGTAA, the switch fluorescence ratio is 1.03.

As for GTCATCTGCA, the switch fluorescence ratio is 1.03.

As for GGTCGTTAGT, the switch fluorescence ratio is 1.

For the sequence CCTAAGGTCC, the switch fluorescence ratio was 1.02.

Regarding GCCAAAAAAT, the switch fluorescence ratio was determined as 0.964.

For the sequence GTGTTCCAAG, the switch fluorescence ratio is 0.985.

As for CACGAATGAA, the switch fluorescence ratio was determined as 1.02.

Turning to CTCTCGTGCA, the switch fluorescence ratio was 1.16.

Take TGGTGCTCGG: the switch fluorescence ratio is 1.03.

As to TTATGCGTTA, the switch fluorescence ratio amounted to 0.947.

CGTTCGAGGA: the switch fluorescence ratio was 1.01.

CCTAGATTAA: the switch fluorescence ratio turned out to be 1.02.

For TTTTTCCTG, the switch fluorescence ratio stood at 1.01.

On to ATATTGTA, for which the switch fluorescence ratio came to 1.03.

With TCGAGAAGGA, the switch fluorescence ratio stood at 0.957.

In the case of TCGTACAAAC, the switch fluorescence ratio stood at 1.3.

As for GGGGGCAGC, the switch fluorescence ratio worked out at 0.999.

As to AGGGGTCG, the switch fluorescence ratio is 1.02.

As to ACGTGTATGC, the switch fluorescence ratio worked out at 1.01.

On to CCTGTTCATA, for which the switch fluorescence ratio came out at 0.996.

In the case of GAGGTGAGCG, the switch fluorescence ratio was 1.

With AACACCATGT, the switch fluorescence ratio was determined as 1.
